Experimental data published in the supplement of paper PMC11125491.
± gives the standard deviation of the averaged measurements. Growth of baker's yeast expressing single-residue variants of Pneumocystis jirovecii dihydrofolate reductase in 8.8 or 44 µM methotrexate (about 75% and 90% inhibition of the wild type). Selection coefficient per generation; 0 = like wild type, above 0 = less sensitive, below 0 = more sensitive or loss of function. No active / inactive call per row; the paper calls resistant above 0.220 (8.8 µM) or 0.243 (44 µM) together with a significance test. At 44 µM about 15% of codons end with one read or none, so the lowest values are floors (replicate rank correlation 0.74; 0.94 at 8.8 µM).

B1: UniProt A0EPZ9; numbered along this chain (parent)
chain: MDWQKSLTLIVALTLSRGIGLKNDLPWKLKSDMMFFSRVTSGLLVTRSTGQMNVVLMGRKTWESLPAHSRPLKNRINVVISRQEVLDLGGGAYHARSLDDALALLSQIYDSTSKIQLNRVFVIGGGELCKAAMEHSRLNRIIATVIHNEVDCDVFFPIDFRSSQSCLPWRKQDHSVLEAWVGSKVPQGKINENGFIYEFEMWIRDI

Variants of: B1
Test: selection coefficient against synonymous wild-type codons (log2 per generation); higher = faster growth than wild type
Settings: with Saccharomyces cerevisiae carrying the variant on a plasmid
Procedure: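 Pooled growth of yeast carrying single-residue variants of P. jirovecii dihydrofolate reductase (own DFR1 gene intact), two passages at 30 °C, three cultures, sequenced before and after. Codons with under 15 starting reads are left out; codons of one change are averaged.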

Row | Variant | selection coefficient against synonymous wild-type codons (log2) (methotrexate 8.8 µM) | selection coefficient against synonymous wild-type codons (log2) (methotrexate 44 µM)
1 | MDWQKSLTLIVALTLSRGIGLKNDLPWKLKSDMMFFSRVTSGLLVTRSTGQMNVVLMGRKTWESLPAHSRPLKNRINVVISRQEVLDLGGGAYHARSLDDALALLSQIYDSTSKIQLNRVFVIGGGELCKAAMEHSRVNRIIATVIHNEVDCDVFFPIDFRSSQSCLPWRKQDHSVLEAWVGSKVPQGKINENGFIYEFEMWIRDI [L138V] | 0.0788 ± 0.038 | -0.000229 ± 0.16
2 | MDWQKSLTLIVALTLSRGIGLKNDLPWKLKSDMMFFSRVTSGLLVTRSTGQMNVVLMGRKTWESLPAHSRPLKNRINVVISRQEVLDLGGGAYHARSLDDALALLSQIYDSTSKIQLNRVFVIGGGELCKAAMEHSRQNRIIATVIHNEVDCDVFFPIDFRSSQSCLPWRKQDHSVLEAWVGSKVPQGKINENGFIYEFEMWIRDI [L138Q] | -0.119 ± 0.062 | -0.0791 ± 0.21
3 | MDWQKSLTLIVALTLSRGIGLKNDLPWKLKSDMMFFSRVTSGLLVTRSTGQMNVVLMGRKTWESLPAHSRPLKNRINVVISRQEVLDLGGGAYHARSLDDALALLSQIYDSTSKIQLNRVFVIGGGELCKAAMEHSRPNRIIATVIHNEVDCDVFFPIDFRSSQSCLPWRKQDHSVLEAWVGSKVPQGKINENGFIYEFEMWIRDI [L138P] | 0.118 ± 0.035 | 0.0232 ± 0.16
4 | MDWQKSLTLIVALTLSRGIGLKNDLPWKLKSDMMFFSRVTSGLLVTRSTGQMNVVLMGRKTWESLPAHSRPLKNRINVVISRQEVLDLGGGAYHARSLDDALALLSQIYDSTSKIQLNRVFVIGGGELCKAAMEHSRWNRIIATVIHNEVDCDVFFPIDFRSSQSCLPWRKQDHSVLEAWVGSKVPQGKINENGFIYEFEMWIRDI [L138W] | 0.139 ± 0.038 | 0.224 ± 0.11
5 | MDWQKSLTLIVALTLSRGIGLKNDLPWKLKSDMMFFSRVTSGLLVTRSTGQMNVVLMGRKTWESLPAHSRPLKNRINVVISRQEVLDLGGGAYHARSLDDALALLSQIYDSTSKIQLNRVFVIGGGELCKAAMEHSRRNRIIATVIHNEVDCDVFFPIDFRSSQSCLPWRKQDHSVLEAWVGSKVPQGKINENGFIYEFEMWIRDI [L138R] | -0.306 ± 0.058 | -0.162 ± 0.088
6 | MDWQKSLTLIVALTLSRGIGLKNDLPWKLKSDMMFFSRVTSGLLVTRSTGQMNVVLMGRKTWESLPAHSRPLKNRINVVISRQEVLDLGGGAYHARSLDDALALLSQIYDSTSKIQLNRVFVIGGGELCKAAMEHSRNNRIIATVIHNEVDCDVFFPIDFRSSQSCLPWRKQDHSVLEAWVGSKVPQGKINENGFIYEFEMWIRDI [L138N] | -0.104 ± 0.054 | -0.117 ± 0.12
7 | MDWQKSLTLIVALTLSRGIGLKNDLPWKLKSDMMFFSRVTSGLLVTRSTGQMNVVLMGRKTWESLPAHSRPLKNRINVVISRQEVLDLGGGAYHARSLDDALALLSQIYDSTSKIQLNRVFVIGGGELCKAAMEHSRYNRIIATVIHNEVDCDVFFPIDFRSSQSCLPWRKQDHSVLEAWVGSKVPQGKINENGFIYEFEMWIRDI [L138Y] | 0.0182 ± 0.024 | 0.0602 ± 0.025
8 | MDWQKSLTLIVALTLSRGIGLKNDLPWKLKSDMMFFSRVTSGLLVTRSTGQMNVVLMGRKTWESLPAHSRPLKNRINVVISRQEVLDLGGGAYHARSLDDALALLSQIYDSTSKIQLNRVFVIGGGELCKAAMEHSRMNRIIATVIHNEVDCDVFFPIDFRSSQSCLPWRKQDHSVLEAWVGSKVPQGKINENGFIYEFEMWIRDI [L138M] | -0.0411 ± 0.039 | -0.0194 ± 0.14
9 | MDWQKSLTLIVALTLSRGIGLKNDLPWKLKSDMMFFSRVTSGLLVTRSTGQMNVVLMGRKTWESLPAHSRPLKNRINVVISRQEVLDLGGGAYHARSLDDALALLSQIYDSTSKIQLNRVFVIGGGELCKAAMEHSRTNRIIATVIHNEVDCDVFFPIDFRSSQSCLPWRKQDHSVLEAWVGSKVPQGKINENGFIYEFEMWIRDI [L138T] | 0.17 ± 0.031 | 0.222 ± 0.087
10 | MDWQKSLTLIVALTLSRGIGLKNDLPWKLKSDMMFFSRVTSGLLVTRSTGQMNVVLMGRKTWESLPAHSRPLKNRINVVISRQEVLDLGGGAYHARSLDDALALLSQIYDSTSKIQLNRVFVIGGGELCKAAMEHSRSNRIIATVIHNEVDCDVFFPIDFRSSQSCLPWRKQDHSVLEAWVGSKVPQGKINENGFIYEFEMWIRDI [L138S] | 0.172 ± 0.034 | 0.212 ± 0.072
11 | MDWQKSLTLIVALTLSRGIGLKNDLPWKLKSDMMFFSRVTSGLLVTRSTGQMNVVLMGRKTWESLPAHSRPLKNRINVVISRQEVLDLGGGAYHARSLDDALALLSQIYDSTSKIQLNRVFVIGGGELCKAAMEHSRLFRIIATVIHNEVDCDVFFPIDFRSSQSCLPWRKQDHSVLEAWVGSKVPQGKINENGFIYEFEMWIRDI [N139F] | -0.287 ± 0.15 | -0.0314 ± 0.043
12 | MDWQKSLTLIVALTLSRGIGLKNDLPWKLKSDMMFFSRVTSGLLVTRSTGQMNVVLMGRKTWESLPAHSRPLKNRINVVISRQEVLDLGGGAYHARSLDDALALLSQIYDSTSKIQLNRVFVIGGGELCKAAMEHSRLARIIATVIHNEVDCDVFFPIDFRSSQSCLPWRKQDHSVLEAWVGSKVPQGKINENGFIYEFEMWIRDI [N139A] | -0.255 ± 0.12 | -0.0843 ± 0.18
13 | MDWQKSLTLIVALTLSRGIGLKNDLPWKLKSDMMFFSRVTSGLLVTRSTGQMNVVLMGRKTWESLPAHSRPLKNRINVVISRQEVLDLGGGAYHARSLDDALALLSQIYDSTSKIQLNRVFVIGGGELCKAAMEHSRLERIIATVIHNEVDCDVFFPIDFRSSQSCLPWRKQDHSVLEAWVGSKVPQGKINENGFIYEFEMWIRDI [N139E] | -0.0587 ± 0.04 | -0.0852 ± 0.057
14 | MDWQKSLTLIVALTLSRGIGLKNDLPWKLKSDMMFFSRVTSGLLVTRSTGQMNVVLMGRKTWESLPAHSRPLKNRINVVISRQEVLDLGGGAYHARSLDDALALLSQIYDSTSKIQLNRVFVIGGGELCKAAMEHSRLCRIIATVIHNEVDCDVFFPIDFRSSQSCLPWRKQDHSVLEAWVGSKVPQGKINENGFIYEFEMWIRDI [N139C] | -0.102 ± 0.03 | -0.104 ± 0.13
15 | MDWQKSLTLIVALTLSRGIGLKNDLPWKLKSDMMFFSRVTSGLLVTRSTGQMNVVLMGRKTWESLPAHSRPLKNRINVVISRQEVLDLGGGAYHARSLDDALALLSQIYDSTSKIQLNRVFVIGGGELCKAAMEHSRLDRIIATVIHNEVDCDVFFPIDFRSSQSCLPWRKQDHSVLEAWVGSKVPQGKINENGFIYEFEMWIRDI [N139D] | -0.00332 ± 0.025 | 0.0405 ± 0.019
